The values below come from patent publication US12616706B2, “Compositions and methods of use comprising substances with neural plasticity actions administered at non-psychedelic/psychotomimetic dosages and formulations” (Arbormentis LLC, priority 2019, dated 2026).

This test deals with ARPE-19 cells. The test is described as follows: L-glutamate-induced cytotoxicity, cell viability (ATPlite). The settings on record: psilocin 0.025 to 0.1 μM, 6 h pretreatment, 1 mM L-Glu.

Regarding `CN(C)CCc1c[nH]c2cccc(O)c12` [psilocin], the “Reduction of cell viability induced by L-glutamate” value is listed as “counteracted the observed reduction of cell viability”.
